Experimental data taken from the supplement of paper PMC7266297.
Structures can show the parent of a compound that is named as a salt. This is one part of the list. Many values rest on one well or one pass, so single values are uncertain.

Experiments:
KB-3-1 = test: growth inhibition relative to DMSO control (SRB); cervical cancer cells: KB-3-1 is the parent and KB-V1 overexpresses MDR1; SRB is the sulforhodamine B stain; higher = more growth inhibition; conditions: 1 µM; 72 h
KB-V1 = test: as above; conditions: 1 µM; 72 h
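Further: Read-out is SRB optical density at 490 nm, with the control being wells given 0.5% DMSO vehicle, and compound added one day after cells were plated.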

| Structure (SMILES) | growth inhibition (KB-3-1) | growth inhibition (KB-V1) |
| --- | --- | --- |
| CC(C)C[C@@H](C=O)NC(=O)[C@H](CC(C)C)NC(=O)[C@H](CC(C)C)NC(=O)OCc1ccccc1 | 100% | 96.8% |
| COc1cccc2c1C(=O)c1c(O)c3c(c(O)c1C2=O)C[C@@](O)(C(=O)CO)C[C@@H]3O[C@H]1C[C@H](N)[C@@H](O)[C@H](C)O1 [Epirubicin HCl] | 80.2% | 48.5% |
| COC(=O)[C@H](c1ccccc1Cl)N1CCc2sccc2C1 [Clopidogrel] | 13.2% | 37.2% |
| O=C(Oc1cc(S(=O)(=O)c2ccccc2)ccc1[N+](=O)[O-])c1ccc(Cl)cc1 | 49.7% | 5.56% |
| CC(C(=O)O)c1ccc2c(c1)CC(=O)c1ccccc1S2 (stereo not given) [Zaltoprofen] | < 0% | 3.17% |
| O=c1cc(-c2ccc(O)c(O)c2)oc2cc(O)cc(O)c12 [Luteolin] | < 0% | 6.54% |
| CN1CCN2c3ccccc3Cc3ccccc3C2C1 (stereo not given) [Mianserin HCl] | 99% | 95% |
| CCCCCCCN(CC)CCCC(O)c1ccc(NS(C)(=O)=O)cc1 (stereo not given) [Ibutilide Fumarate] | < 0% | < 0% |
| C[C@H](NC(=O)Cc1cc(F)cc(F)c1)C(=O)N[C@H](C(=O)OC(C)(C)C)c1ccccc1 | < 0% | 70.1% |
| Oc1ccc(/C=C/c2cc(O)cc(O)c2)cc1 [Resveratrol] | 13.6% | 34.7% |
| S=C(NCc1ccc2c(c1)OCO2)N1CCN(c2ncnc3c2oc2ccccc23)CC1 [Amuvatinib (MP-470)] | 31.5% | 44% |
| CCOc1nc2cccc(C(=O)O)c2n1Cc1ccc(-c2ccccc2-c2noc(=O)[nH]2)cc1 [Azilsartan] | < 0% | 0.244% |
| N=C(N)Nc1ccc(C(=O)Oc2ccc3cc(C(=N)N)ccc3c2)cc1 [Nafamostat Mesylate] | 8.22% | 39.3% |
| Cc1cc(CN2CCN(c3c(Br)cnc4nc(-c5ccc(N6CCN(C)CC6)cc5)[nH]c34)CC2)no1 | < 0% | 38.5% |
| O=C(CCCCCCNC(=O)c1cnc(N(c2ccccc2)c2ccccc2)nc1)NO [Rocilinostat (ACY-1215)] | 52.4% | 9.26% |
| CCC(C)(Oc1ccc(C2(c3ccc(OC(C)(CC)C(=O)O)cc3)CCCCC2)cc1)C(=O)O (stereo not given) [Clinofibrate] | < 0% | < 0% |
| CCN(CC)Cc1ccc2cc(COC(=O)Nc3ccc(C(=O)NO)cc3)ccc2c1 [Givinostat (ITF2357)] | 93.9% | 88.8% |
| CCCCCCCCCCCCc1ccc(S(=O)(=O)Nc2nncs2)cc1 | 27.9% | 2.32% |
| COc1cc2ncnc(Nc3cccc(Cl)c3)c2cc1OC [AG-1478 (Tyrphostin AG-1478)] | < 0% | < 0% |
| Cc1cc(Nc2cc(N3CCN(C)CC3)nc(Sc3ccc(NC(=O)C4CC4)cc3)n2)n[nH]1 [VX-680 (Tozasertib, MK-0457)] | 67.4% | 71% |
| O=C(O)c1cccc(-c2noc(-c3ccccc3F)n2)c1 [Ataluren (PTC124)] | 43.9% | 18.4% |
| N#Cc1ccc(C(c2ccc(C#N)cc2)n2cncn2)cc1 [Letrozole] | 38.1% | 30.4% |
| CN(C)C1CCN(C(=O)c2ccc(NC(=O)Nc3ccc(-c4nc(N5CCOCC5)nc(N5CCOCC5)n4)cc3)cc2)CC1 | 65.2% | 42.7% |
| Nc1cc(C(F)(F)F)c(-c2cc(N3CCOCC3)nc(N3CCOCC3)n2)cn1 [BKM120 (NVP-BKM120, Buparlisib)] | 63% | 62.6% |
| CCOC(=O)[C@H]1O[C@@H]1C(=O)N[C@@H](CC(C)C)C(=O)NCCC(C)C [Aloxistatin] | 56.1% | 6.79% |

| Structure (SMILES) | growth inhibition (KB-3-1) | growth inhibition (KB-V1) |
| --- | --- | --- |
| O=C(NCc1ccc(Oc2ccccc2)cc1)c1nc(-c2cc(Br)c(O)c(Br)c2)no1 | < 0% | < 0% |
| COc1ccc(-c2cnc3c(-c4cccc5ncccc45)cnn3c2)cc1 | 5.75% | < 0% |
| CS(=O)(=O)N1CCN(Cc2cc3nc(-c4cccc5[nH]ncc45)nc(N4CCOCC4)c3s2)CC1 | 74.5% | 64.2% |
| Cc1ccc2nc(NCCN)c3ncc(C)n3c2c1 | 58.1% | 16.7% |
| CCOC(=O)C1=C(COCCN)NC(C)=C(C(=O)OC)C1c1ccccc1Cl (stereo not given) [Amlodipine] | 51% | 20.6% |
| CCOC(=O)C1=C(C)NC(C)=C(C(=O)OCC)C1c1ccccc1/C=C/C(=O)OC(C)(C)C [Lacidipine] | 47.3% | 21.3% |
| NC(=O)c1ccc(-c2nc(-c3ccccn3)c(-c3ccc4c(c3)OCO4)[nH]2)cc1 | 13.8% | 21.3% |
| CCN(CC)CCCCNc1ncc2cc(-c3cc(OC)cc(OC)c3)c(NC(=O)NC(C)(C)C)nc2n1 | 18.8% | 68.6% |
| O=C(NC1CCOCC1)c1ccc(-c2cc(-c3c[nH]nc3-c3ccccn3)ccn2)cc1 | < 0% | 10.9% |
| COc1cc2ncnc(Sc3nnc(C)s3)c2cc1OC | 24.6% | < 0% |
| Cc1c(C(=O)NN2CCCCC2)nn(-c2ccc(Cl)cc2Cl)c1-c1ccc(Cl)cc1 [Rimonabant] | < 0% | 13.3% |
| CCc1ccc(/C=C2/SC(=S)NC2=O)cc1 | < 0% | < 0% |
| CC(C)CCNC(=O)[C@H](CC(C)C)NC(=O)[C@H]1O[C@@H]1C(=O)O [Loxistatin Acid (E-64C)] | 50% | 10.5% |
| O=C(/C=C\n1cnc(-c2cc(C(F)(F)F)cc(C(F)(F)F)c2)n1)N1CC(F)(F)C1 | 71.2% | 73.2% |
| O=C(c1cc(Cc2n[nH]c(=O)c3ccccc23)ccc1F)N1CCN(C(=O)C2CC2)CC1 | 26.5% | 26.4% |
| COc1ccccc1S(=O)(=O)Nc1ccc2c(c1)CN(C)C(=O)N2 | 71.3% | 57.3% |
| COc1ccc2cccc(CCNC(C)=O)c2c1 [Agomelatine] | 38% | 32.8% |
| COc1cc2nc(N3CCCN(C)CC3)nc(NC3CCN(Cc4ccccc4)CC3)c2cc1OC | 97% | 63.7% |
| CC(C)CN(C[C@@H](O)[C@H](Cc1ccccc1)NC(=O)O[C@H]1CCOC1)S(=O)(=O)c1ccc(N)cc1 [Amprenavir] | 28% | 7.28% |
| Cc1c(Nc2ncccc2C(=O)O)cccc1C(F)(F)F [Flunixin Meglumin] | < 0% | 32.7% |
| Cc1nc(N)sc1-c1ccnc(Nc2ccc(N3CCOCC3)cc2)n1 | 80.9% | 64% |
| COc1ccc(-c2oc3c(CC=C(C)C)c(O[C@@H]4O[C@H](CO)[C@@H](O)[C@H](O)[C@H]4O)cc(O)c3c(=O)c2O[C@@H]2O[C@@H](C)[C@H](O)[C@@H](O)[C@H]2O)cc1 [Icariin] | < 0% | < 0% |
| O=C(c1cn(Cc2cncn2Cc2ccc(Br)cc2)cc1-c1cccc2ccccc12)N1CCOCC1 | 74.8% | 36.9% |
| CN(C)CCC(c1ccc(Br)cc1)c1ccccn1 (stereo not given) [Brompheniramine hydrogen maleate] | 28.7% | 10.6% |
| CN(C)CCCN1c2ccccc2CCc2ccc(Cl)cc21 [Clomipramine HCl] | 1.3% | 11.7% |
